Among all 45,000 compounds or so, about 65 (0.1%) were called active. The call rests on the fitted dose curve; in most records, active means well fitted activation curve with a large enough effect; inconclusive means small, poorly fitted or top-dose-only effect; inactive means no such curve, though single readings can be large or run the other way. The list shows a part of the results.

The assay has as its target Galactocerebrosidase (Homo sapiens) (UniProt P54803). Nature of the assay: A Novel Cell-Based Assay to Identify Small Molecules for B -Galactocerebrosidase. Further: 0% is about no effect; nearly all actives have a fitted effect of over 65% in size. The conditions noted are these: 145M-Twi-hGALC-G270D cells (Twitcher mouse brain line with human GALC G270D), HMU-beta-Gal fluorescence, 48 h; series mostly up to 57.5 µM; activation: at the top concentration. In short, it runs like this: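 Live 145M-Twi cells (Twitcher mouse brain-derived, GALC-null) stably expressing human GALC-G270D, with a wild-type GALC line, were compound-treated. Residual GALC activity was then read as fluorescence from 0.1 mM final HMU-β-gal at pH 5.2; higher signal means activation.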
Sequence of UniProt P54803 (P54803 whole entry, looked up): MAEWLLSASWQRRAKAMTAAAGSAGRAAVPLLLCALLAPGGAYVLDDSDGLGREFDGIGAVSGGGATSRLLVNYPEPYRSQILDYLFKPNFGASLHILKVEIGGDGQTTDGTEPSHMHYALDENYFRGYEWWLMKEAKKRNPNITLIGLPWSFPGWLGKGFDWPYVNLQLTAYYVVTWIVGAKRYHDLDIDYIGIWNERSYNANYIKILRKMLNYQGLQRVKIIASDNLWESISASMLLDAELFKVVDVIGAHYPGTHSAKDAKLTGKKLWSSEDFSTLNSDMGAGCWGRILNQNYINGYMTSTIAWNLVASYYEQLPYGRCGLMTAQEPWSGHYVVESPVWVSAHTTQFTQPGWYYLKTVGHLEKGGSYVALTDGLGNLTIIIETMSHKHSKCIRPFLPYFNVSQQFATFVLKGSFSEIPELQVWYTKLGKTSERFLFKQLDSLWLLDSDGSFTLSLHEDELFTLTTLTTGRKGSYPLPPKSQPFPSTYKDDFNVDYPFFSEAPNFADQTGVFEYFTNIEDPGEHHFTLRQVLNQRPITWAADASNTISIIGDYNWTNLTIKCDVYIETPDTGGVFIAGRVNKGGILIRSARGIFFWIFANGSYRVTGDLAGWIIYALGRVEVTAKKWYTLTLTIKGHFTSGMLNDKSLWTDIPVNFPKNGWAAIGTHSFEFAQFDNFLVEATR
For the compound `COc1cccc2cc(C(=O)NCCc3c(C)[nH]c4ccc(Br)cc34)c(=O)oc12`, the “activation” value was inactive: 19.4%. Take `Cc1ccnc(NS(=O)(=O)c2cc(-c3cc(C)no3)ccc2C)c1`: the “activation” value is inactive: -11.3%. For the compound `Cc1ccc(-n2ncc(C(=O)Nc3ccc4c(c3)OCO4)c2C2CCN(C(=O)OC(C)(C)C)CC2)cc1`, the “activation” value is inactive: -3.2%. As for `CCc1ccc(N(CC)C(=O)Cn2c(=O)oc3ccccc32)cc1`, the “activation” value was inactive: -14.7%. As for `CC(C)(C)NC(=O)c1cnn2c(C(F)F)cc(-c3ccccc3)nc12`, the “activation” value was inactive: -13.2%. Consider `Cc1ccc(-c2cnc(NCc3ccc(C(F)(F)F)cc3)n2C)cc1`, for which the “activation” value is inactive: -15%.

Regarding `COc1ccc(/C=C/C(=O)Nc2nc3n(n2)C(c2ccccc2)C=C(c2ccccc2)N3)cc1` (configuration not stated), the “activation” value is inactive: -14.8%. With `Cc1ccc(CCNC(=O)C2CCN(c3nnc(-n4cccc4CNc4ccc(C)cc4)s3)CC2)cc1` the figure was inactive: 6.11%; with `CCN(C(=O)Cn1c(=O)oc2cc(Cl)ccc21)c1cccc(C(F)(F)F)c1`, inactive: -10.9%. For `CCOC(=O)c1cc2c(=O)n3ccccc3nc2n(CC(C)C)c1=NC(=O)c1cc2ccccc2o1` the value was inactive: -18.5%; for `CC(=O)c1cccc(NC(=O)CCS(=O)(=O)c2ccc(Br)s2)c1`, inactive: -10.4%. `O=C(CN1C(=O)CC(c2ccccc2)Sc2ccccc21)Nc1cccc(Cl)c1` (configuration not stated): the “activation” value is inactive: -0.295%. For `CCOCCn1ccc2c(OCC(=O)Nc3ccc(OC(F)(F)F)cc3)cccc2c1=O` the value was inactive: -11.1%; for `Clc1ccccc1CNc1nc2ccccc2c2nc(-c3cccnc3)nn12`, inactive: -9.46%.

In the case of `COc1ccc(Cl)cc1NC(=O)c1c(NCc2sccc2C)sc2c1CCCC2`, the “activation” value is inactive: -14.9%. On to `COCCCNC(=O)c1cc(-c2cccnc2)nc2ccc(S(=O)(=O)N3CCC(C)CC3)cc12`, for which the “activation” value was inactive: -2.29%. `CN1C(=O)C2(c3ccccc31)N(c1cccc(F)c1)C(=O)CS2(=O)=O` (configuration not stated): the “activation” value was inactive: -27.7%.

Take `COc1ccc(OC)c(CNS(=O)(=O)c2c(C(=O)N3CCCCCC3)c(C)n(C)c2C)c1`: the “activation” value is inactive: -19.6%. For `O=C(Cn1nnc(-c2ccc(Cl)cc2)n1)NCc1ccc(F)cc1` the value was inactive: 11.3%. As for `O=S(=O)(c1ccc(Br)cc1)c1nc(-c2cccs2)oc1SCc1ccccc1F`, the “activation” value is inactive: -11.3%. With `Cc1ccc(NC(=O)c2cnc(SCC(=O)Nc3cc(C)on3)n(C)c2=O)cc1` the figure was inactive: -3.01%; with `COc1ccc(Cl)cc1NC(=O)CSC1=Nc2ccccc2C2=NC(CC(=O)NCc3ccc4c(c3)OCO4)C(=O)N12` (configuration not stated), inactive: -15.2%; with `Cc1ccc(CNC(=O)Cn2cc(S(=O)(=O)Cc3ccccc3F)c3ccccc32)cc1`, inactive: -9.34%. On to `COc1ccccc1N1CCN(C(=O)CCNS(=O)(=O)c2ccc3c(c2)CCN3C(=O)C2CC2)CC1`, for which the “activation” value is inactive: -30.4%.

As for `CCC(Oc1ccc(F)cc1)C(=O)Nc1nc(-c2ccc(F)cc2)ns1` (configuration not stated), the “activation” value is inactive: -3.99%. For `CCOC(=O)c1ccc(NC(=O)CC2C(=O)N(c3cccc(OC)c3)C(=O)N2Cc2ccc(OC)cc2)cc1` (configuration not stated) the value was inactive: -16.6%; for `C=CCc1ccccc1OCC(O)CN1CCN(c2ccccc2)CC1` (configuration not stated), inactive: -8.77%; for `COc1ccccc1C(=O)Nc1ccc2c(c1)nc(CN1CCCCC1)n2C`, inactive: -1.62%. Take `Cc1cc(C)n2nc(SCC(=O)Nc3cccc(C(F)(F)F)c3)nc2n1`: the “activation” value is inactive: -17.3%. Take `CCn1c(=O)n(CC)c2cc(N3CCCCC3)c(NC(=O)Nc3ccccc3C(F)(F)F)cc21`: the “activation” value was inactive: -3.07%. With `Cc1sc2c(c1C)c(=O)n(-c1cccc(C(F)(F)F)c1)c(=O)n2Cc1ccc(F)cc1` the figure was inactive: 0.281%. With `Cc1ccc(-c2nc3ccc(Cl)cn3c2Nc2ccccc2C)s1` the figure was inactive: -15.8%; with `COC(=O)c1ccc(NC(=O)CCc2c(C)nc3c(c2C)c(=O)n(C)c(=O)n3C)cc1`, inactive: 0.973%; with `COc1ccccc1Cc1nc2ccccc2nc1SCC(=O)Nc1cccc(Cl)c1C`, inactive: -18%. Regarding `CC(C)c1cnc2c(c1SCC(=O)NCc1ccccc1)c(=O)n(C)c(=O)n2C`, the “activation” value was inactive: -15.8%.

`Cc1ccccc1NC(=O)CSc1nc(=O)n(CCN2CCOCC2)c2c1CCC2`: the “activation” value is inactive: -15.2%.

In the case of `CN(Cc1ccccc1)C(=O)CSc1nc2ccccc2n1Cc1ccccc1F`, the “activation” value was inactive: -12.5%. In the case of `COc1ccc(CNC(=O)c2cnc3cc(C)ccn3c2=O)cc1`, the “activation” value was inactive: 1.8%. For the compound `COc1cc(NC(=O)CSC2=Nc3ccccc3N=C(c3ccc(F)cc3)C2)cc(OC)c1`, the “activation” value is inactive: -10.9%. For `CCCOC(=O)c1ccc(N)cc1` the value was inactive: -8.43%; for `CCN1CCN(CCCNC(=O)c2cc3c(s2)-c2c(C)cccc2OC3)CC1`, inactive: -7.35%; for `O=S(=O)(c1ccc(-c2cc(C(F)(F)F)on2)s1)N1CCN(c2cccc(Cl)c2)CC1`, inactive: -5.24%. For `CCOc1ccccc1CNC(=O)c1[nH]c2ccccc2c1Sc1ccccc1` the value was inactive: -24.8%; for `CCc1nc2ccc(C(=O)NCCc3ccc(OC)c(OC)c3)cc2nc1CC`, inactive: -2.05%. With `O=C(c1ccco1)N1CCN(c2nc3ccc(Cl)cc3s2)CC1` the figure was inactive: 2.72%; with `CCn1ccc2cc(S(=O)(=O)N3CCC(C(=O)NCCOC)CC3)ccc21`, inactive: -6.99%; with `Cc1ccccc1OCC(=O)Nc1ccccc1C(=O)OCc1cc(=O)n2c(C)csc2n1`, inactive: -5.36%. As for `Cc1nn2c(C(F)(F)F)cc(-c3ccc(OC(C)C)cc3)nc2c1C#N`, the “activation” value is inactive: -4.16%. With `COc1ccc(OC)c(CCNC(=O)c2ccc3[nH]c(C)c(C)c3c2)c1` the figure was inactive: 29%; with `COc1ccc(C(CC(=O)Nc2ccc(OC)c(OC)c2)N2Cc3ccccc3C2=O)cc1` (configuration not stated), inactive: -15.6%; with `COCCn1c(C)cc(O)c(C(c2ccccc2OC)N2CCCCC2)c1=O` (configuration not stated), inactive: -10.3%. For the compound `COc1cccc(CNC(=O)c2cc3c(=O)n(C)c4ccccc4c3n2C)c1`, the “activation” value was inactive: -7.43%.

Take `Cc1ccc(C)c(N2CCN(C(=O)c3cccn3-c3nnc(N4CCCCC4)s3)CC2)c1`: the “activation” value is inactive: -26.8%. As for `O=C(Nc1cccc(C2=NCCN2)c1)Nc1cccc(C2=NCCN2)c1`, the “activation” value was inactive: -19.2% [at 23.8 µM]. As for `Cc1ccc2nc(SCc3nc(-c4ccccc4C)no3)[nH]c2c1`, the “activation” value is inactive: -36%.

For the compound `Cc1ccc2c(CC(=O)Nc3c(C(=O)Nc4cccc(Cl)c4)oc4ccccc34)coc2c1C`, the “activation” value is inactive: -8.16%. With `COc1ccc2cc(CNc3ccccc3)c(=O)n(CC(=O)Nc3ccc(C)cc3C)c2c1` the figure was inactive: -10.4%. As for `CCCCN(CC)CCNC(=O)Cn1c(=O)c2cccn2c2cccnc21`, the “activation” value is inactive: 0.0423%. On to `Cc1ccc(NC(=O)Cn2c(=O)c(C(F)(F)F)nc3ccccc32)c(C)c1`, for which the “activation” value was inactive: 8.46%. For `Cc1ccccc1Cn1c(Oc2ccccc2F)nc2c1c(=O)n(C)c(=O)n2C` the value was inactive: 0.588%.

Consider `Cc1ccc(Cl)cc1Nc1sc(C(=O)c2ccccc2)c(N)c1S(=O)(=O)c1ccccc1`, for which the “activation” value was inactive: -17%. On to `Cc1ccc(Nc2cc(C(=O)NC3CCCC3)c3ccccc3n2)c(C)c1`, for which the “activation” value was inactive: -4.36%.

Source of the values: PubChem BioAssay AID1159614 (National Center for Advancing Translational Sciences (NCATS), 2016).
